According to PubChem BioAssay AID588855 (National Center for Advancing Translational Sciences (NCATS), 2011):
The whole screen tested about 410,000 compounds, of which about 5,000 (1.2%) were called active. This list was built around the results that the source calls inconclusive (neither active nor inactive); the mix of calls is not that of the screen. Calls follow the shape of the dose curve; as a rule, active = well fitted inhibition curve with a large enough effect; inconclusive = small, poorly fitted or top-dose-only effect; inactive = no such curve, though single readings can be large or run the other way. A potency beside an inconclusive call is a rough fit, not a confirmed value.

Test: qHTS for Inhibitors of TGF-b; also: nearly all actives have a fitted effect of over 65% in size
Conditions: HepG2 CAGA-GFP TGF-b/SMAD3 reporter, GFP fluorescence, 18 h, TGF-beta stimulated, 500 pg/mL final; series mostly up to 46.1 µM
In short: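 Per well, imaged GFP fluorescence of HEPG2 CAGA-GFP cells gives the signal; cells get compound, then TGF-beta (500 pg/mL final), 18 h at 37 degrees C; %Activity versus -TGF-beta and +DMSO controls.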
Potency is read from the fitted curve at half-maximal effect; tags tell the direction and shape of the fitted curve.

**Q.** Which Potency does the source give for `Cc1ccc(C(=O)NC(=S)Nc2ccc(-c3cc4ccccc4oc3=O)cc2)c(C)c1` here?
**A.** inactive

**Q.** With `CC(C)(CNc1ccc([N+](=O)[O-])cc1C#N)N1CCOCC1` as the molecule, how does the Potency read?
**A.** inactive

**Q.** For `CN(C(=O)CN1CCN(c2cc(-c3ccc(-c4ccccc4)cc3)ncn2)CC1)c1ccccc1`, which Potency is on record?
**A.** inconclusive: 17.8 µM [inhibitor, single point]

**Q.** With `CCc1nc2cccnc2n1-c1ccc(CC(=O)Nc2ccccc2Cl)cc1` as the molecule, how does the Potency read?
**A.** inconclusive: 35.5 µM [inhibitor, partial curve, poor fit]

**Q.** For `CC1CCCN(CCCOc2ccccc2-c2ccccc2)C1` (centres undefined), which Potency is on record?
**A.** inconclusive: 35.5 µM [inhibitor, single point]

**Q.** With `O=C(NCC(c1cccs1)N1CCOCC1)c1ccccc1NS(=O)(=O)c1cccc([N+](=O)[O-])c1` (centres undefined) as the molecule, how does the Potency read?
**A.** inconclusive: 35.5 µM [inhibitor, single point]

**Q.** Which Potency does the source give for `CC(=O)N1CCSc2ccc(S(=O)(=O)NCCc3ccc(Cl)cc3)cc21` here?
**A.** inactive

**Q.** For `O=C(OC(C(=O)NCc1ccco1)c1ccc(Cl)cc1)c1cccs1` (centres undefined), which Potency is on record?
**A.** inactive

**Q.** With `CCOC(=O)C1=C(C)NC(c2cccs2)C(=O)N1` (centres undefined) as the molecule, how does the Potency read?
**A.** inconclusive: 25.1 µM [inhibitor, single point]

**Q.** With `COc1ccc(N/N=C(/C(N)=O)C2=NC(C)(C)Cc3ccccc32)cc1` as the molecule, how does the Potency read?
**A.** inactive

**Q.** For `C=CC[n+]1c(-c2ccc(C)cc2)csc1NNC(=O)Nc1ccccc1`, which Potency is on record?
**A.** active: 11.2 µM

**Q.** With `Cc1c(-c2cccc(Cl)c2)nc2ccccc2c1C(=O)OC/C(O)=C(\C#N)c1nc2ccccc2[nH]1` as the molecule, how does the Potency read?
**A.** inactive

**Q.** For `CCN(CC)S(=O)(=O)c1cccc(C(=O)Nc2ccc(S(=O)(=O)NC3=NCCCCC3)cc2)c1`, which Potency is on record?
**A.** inactive

**Q.** With `O=C(c1ccc(F)cc1)C(CN1CCOCC1)c1ccccc1` (centres undefined) as the molecule, how does the Potency read?
**A.** active: 3.55 µM

**Q.** For `CNC(=S)N(CCc1c(C)[nH]c2ccc(Cl)cc12)Cc1cc(OC)c(OC)c(OC)c1`, which Potency is on record?
**A.** inconclusive: 35.5 µM [inhibitor, single point]

**Q.** Which Potency does the source give for `C=CC(=O)OCCOCCOCCOCCOC(=O)C=C` here?
**A.** inconclusive: 35.5 µM [inhibitor, single point]

**Q.** Which Potency does the source give for `COc1cc(Cl)c(C)cc1NC(=O)CCn1c(=O)c2cccn2c2cccnc21` here?
**A.** inconclusive: 1.26 µM [inhibitor, partial curve, poor fit]

**Q.** For `C=C1C[C@@]23CCC4[C@@](C)(CCC[C@@]4(C)C(=O)OC)C2CC[C@]1(OC(C)=O)C3` (some centres undefined), which Potency is on record?
**A.** inconclusive: 0.398 µM [inhibitor, full curve]

**Q.** For `O=C(CCNS(=O)(=O)c1ccc(OC(F)(F)F)cc1)Nc1cccc(S(=O)(=O)N2CCCC2)c1`, which Potency is on record?
**A.** inconclusive: 11.2 µM [inhibitor, partial curve]

**Q.** For `O=C1[C@H]2[C@@H](c3ccc(C(F)(F)F)cc3)N[C@]3(CCCN(CC4CCCCC4)C3=O)[C@H]2C(=O)N1Cc1ccccc1`, which Potency is on record?
**A.** inconclusive: 35.5 µM [inhibitor, single point]

**Q.** For `COc1nnc(-c2ccc(N3CCOCC3)c(NC(C)=O)c2)c2ccccc12`, which Potency is on record?
**A.** inactive

**Q.** Which Potency does the source give for `Cc1ccc2cc(CCNC(=O)c3ccc4c(c3)OCO4)c(=O)[nH]c2c1C` here?
**A.** inactive

**Q.** Which Potency does the source give for `COc1cccc(-n2nnc3c(=O)n(Cc4ccc(Cl)cc4)cnc32)c1` here?
**A.** inactive

**Q.** Which Potency does the source give for `Cc1ccc2nc(CN3CCN(C(=O)Nc4ccc(F)cc4)CC3)oc2c1` here?
**A.** inactive

**Q.** For `Cc1ccc(CSCC(=O)N/N=C/c2sccc2C)cc1`, which Potency is on record?
**A.** inconclusive: 12.6 µM [inhibitor, single point]

**Q.** With `Clc1ccc(OCCCCN2CCc3ccccc3C2)cc1` as the molecule, how does the Potency read?
**A.** inconclusive: 35.5 µM [inhibitor, single point]

**Q.** For `c1ccc(CNc2ncnc3sc4c(c23)CCCC4)nc1`, which Potency is on record?
**A.** inconclusive: 35.5 µM [inhibitor, single point]

**Q.** With `CSc1nc(NCCOC(C)=O)c(C#N)c(-c2ccc(C(C)(C)C)cc2)n1` as the molecule, how does the Potency read?
**A.** inactive

**Q.** For `Cc1cc(/C=C2\C=Cc3ccccc32)cc(C)c1N`, which Potency is on record?
**A.** inconclusive: 8.91 µM [inhibitor, partial curve, poor fit]

**Q.** For `COc1ccc(-c2c(-c3cccc(C)c3)oc3ccc(-c4ccc5c(c4)OCO5)cc23)cn1`, which Potency is on record?
**A.** inconclusive: 1.58 µM [inhibitor, partial curve, poor fit]

**Q.** With `O=S(=O)(N/N=C/c1ccc(OC2CSC2)cc1)c1ccccc1` as the molecule, how does the Potency read?
**A.** inconclusive: 35.5 µM [inhibitor, single point]

**Q.** For `CCN(C[C@H]1N[C@@](Cc2ccccc2)(C(=O)OC)[C@H]2C(=O)N(C)C(=O)[C@@H]12)C(=O)c1ccc(F)cc1`, which Potency is on record?
**A.** inconclusive: 6.31 µM [inhibitor, single point]

**Q.** For `CCN(CC)S(=O)(=O)c1ccc(Cl)c(NC(=O)COC(=O)c2c(C)noc2C)c1`, which Potency is on record?
**A.** inactive

**Q.** With `CCCNC(=S)NCc1ccc(Cl)cc1` as the molecule, how does the Potency read?
**A.** inconclusive: 11.2 µM [inhibitor, single point]

**Q.** For `CCc1ccc(S(=O)(=O)c2cn(CC(=O)Nc3ccc(F)c(Cl)c3)c3ccccc3c2=O)cc1`, which Potency is on record?
**A.** inconclusive: 6.31 µM [inhibitor, full curve]

**Q.** With `CC(C)c1cccc(C(C)C)c1NC(=O)CN1CCCC1` as the molecule, how does the Potency read?
**A.** inactive

**Q.** With `CCCc1ccc(S(=O)(=O)N(C)S(=O)(=O)c2ccc(F)cc2)cc1` as the molecule, how does the Potency read?
**A.** inactive

**Q.** With `Cc1ccccc1CNC(=O)C(=O)NCCC1CCCCN1S(=O)(=O)c1ccccc1` (centres undefined) as the molecule, how does the Potency read?
**A.** inconclusive: 35.5 µM [inhibitor, partial curve, poor fit]

**Q.** Which Potency does the source give for `Cc1cccc(N/C(N)=N/c2nc(C)cc(C)n2)c1` here?
**A.** inactive

**Q.** Which Potency does the source give for `COc1cccc(Nc2nc3cc(C)ccc3cc2C)c1` here?
**A.** inactive

**Q.** With `CC(C)c1csc(CN2CCCC(CCC(=O)NCc3ccccc3F)C2)n1` (centres undefined) as the molecule, how does the Potency read?
**A.** inconclusive: 35.5 µM [inhibitor, single point]

**Q.** With `COc1cc(C2CC(=O)N(Cc3cccc(F)c3)c3ccccc3S2)cc(OC)c1OC` (centres undefined) as the molecule, how does the Potency read?
**A.** inconclusive: 15.8 µM [inhibitor, single point]

**Q.** For `COc1ccc(OC)c(C2SCCN2S(=O)(=O)c2cccc(C(F)(F)F)c2)c1` (centres undefined), which Potency is on record?
**A.** inconclusive: 3.98 µM [inhibitor, full curve]

**Q.** Which Potency does the source give for `COc1cc(-c2nnc3sc(Cc4ccc(Cl)cc4)nn23)cc(OC)c1OC` here?
**A.** inactive

**Q.** With `O=C(O)c1cc2c(s1)-c1ccccc1CC2` as the molecule, how does the Potency read?
**A.** inactive

**Q.** Which Potency does the source give for `Cc1cc(C)cc(-n2ccnc2SCC(=O)Nc2cccc3ccccc23)c1` here?
**A.** inconclusive: 35.5 µM [inhibitor, single point]

**Q.** For `Clc1cccc(Cl)c1/C=N\Nc1nccs1`, which Potency is on record?
**A.** inconclusive: 3.16 µM [inhibitor, partial curve]

**Q.** With `Cc1ccc(NC(=O)Cn2nc(C(=O)O)c3ccccc3c2=O)cc1S(=O)(=O)N1CCCCCC1` as the molecule, how does the Potency read?
**A.** inconclusive: 22.4 µM [inhibitor, single point]

**Q.** For `COc1ccccc1C1NC(=O)c2n[nH]c(-c3cccs3)c21` (centres undefined), which Potency is on record?
**A.** inactive

**Q.** Which Potency does the source give for `CCc1ccc(CN(Cc2cccnc2)C(=O)/C=C/c2ccc(OC)cc2)cc1` here?
**A.** inconclusive: 0.631 µM [inhibitor, full curve, poor fit]

**Q.** Which Potency does the source give for `O=C(NCC1CCCO1)c1cccc(Oc2c(Cl)cccc2[N+](=O)[O-])c1` (centres undefined) here?
**A.** inconclusive: 10 µM [inhibitor, partial curve, poor fit]

**Q.** With `CCc1noc(C)c1C(=O)Oc1ccc(N(C)S(=O)(=O)c2ccc(C)cc2)cc1` as the molecule, how does the Potency read?
**A.** inconclusive: 14.1 µM [inhibitor, single point]

**Q.** With `COc1ccc(/C=C/C(=O)CC(O)(c2ccccc2)C(F)(F)F)cc1` (centres undefined) as the molecule, how does the Potency read?
**A.** inconclusive: 35.5 µM [inhibitor, single point]

**Q.** Which Potency does the source give for `NC(Cc1ccc(Cl)cc1)c1csc(Nc2ccc(-c3ccccc3)nn2)n1` (centres undefined) here?
**A.** inconclusive: 35.5 µM [inhibitor, single point]

**Q.** Which Potency does the source give for `COc1ccc(NC(=O)CC2C(=O)N(c3ccccc3)C(=O)N2CCc2cccs2)cc1` (centres undefined) here?
**A.** inactive

**Q.** For `Cc1ccc(NC(=S)N(CCCN2CCCC2)Cc2cccn2Cc2ccc(Cl)cc2)cc1C`, which Potency is on record?
**A.** active: 17.8 µM

**Q.** Which Potency does the source give for `CCOC(=O)Cn1c(=N)n(Cc2ccc(C(C)(C)C)cc2)c2ccccc21` here?
**A.** inconclusive: 35.5 µM [inhibitor, single point]

**Q.** With `O=[N+]([O-])c1ccc(O)c(C2=NNC(c3ccccc3F)C2)c1` (centres undefined) as the molecule, how does the Potency read?
**A.** active: 12.6 µM

**Q.** With `OCCN(Cc1ccccc1)C(=S)Nc1ccc(Cl)cc1Cl` as the molecule, how does the Potency read?
**A.** inactive

**Q.** With `O=C(C1=C[C@H](c2csc3ccccc23)C[C@H](OCc2ccc(CO)cc2)O1)N1CCN(Cc2ccccc2)CC1` as the molecule, how does the Potency read?
**A.** inconclusive: 0.251 µM [inhibitor, full curve, poor fit]

**Q.** For `CCCC(CCC)C(=O)Nc1c[nH]c(=O)[nH]c1=O`, which Potency is on record?
**A.** inconclusive: 35.5 µM [inhibitor, single point]

**Q.** For `Cc1ccc(CN2C(=O)C(O)(c3c(C)[nH]c4ccccc34)c3ccccc32)cc1` (centres undefined), which Potency is on record?
**A.** inconclusive: 22.4 µM [inhibitor, single point]

**Q.** For `CCOC(=O)C1=C[C@@H](c2ccccc2)N(S(=O)(=O)c2ccc(C)cc2)[C@H]1c1ccc(F)cc1`, which Potency is on record?
**A.** inconclusive: 22.4 µM [inhibitor, single point]

**Q.** For `COc1ccc(NC(=O)C2CCC(CNS(=O)(=O)c3cccc4nsnc34)CC2)cc1OC` (centres undefined), which Potency is on record?
**A.** inconclusive: 22.4 µM [inhibitor, single point]

**Q.** For `CCCOC(=O)c1cccc(Nc2nc(CCC)cc(=O)[nH]2)c1`, which Potency is on record?
**A.** inconclusive: 11.2 µM [inhibitor, partial curve, poor fit]

**Q.** Which Potency does the source give for `Cc1ccc(S(=O)(=O)NN=CC2(c3ccccc3)CC2)cc1` here?
**A.** inactive

**Q.** Which Potency does the source give for `Oc1ccccc1-c1nc(-c2cccs2)c(-c2cccs2)[nH]1` here?
**A.** inconclusive: 8.91 µM [inhibitor, partial curve, poor fit]

**Q.** For `COc1ccccc1C(=O)NNC1=C(C(=O)C(F)(F)F)CCC1`, which Potency is on record?
**A.** inconclusive: 15.8 µM [inhibitor, single point]

**Q.** For `COc1cccc(/C=C2\CCCCC2=O)c1`, which Potency is on record?
**A.** inconclusive: 35.5 µM [inhibitor, single point]
